Laboratory results reported in the supplement of paper PMC12230231.
± gives the standard deviation of the averaged measurements. Restriction of a single-cycle SIVsab GFP reporter by TRIM5α v1-loop variants in CRFK cells. Human variants: read share among cells still uninfected after two challenges over input, higher = gained restriction. Rhesus variants: share among infected cells over input, higher = lost restriction. Reporter dose not given per row. No active / inactive call per row; the paper calls a change when both replicates lie above its controls (mean + 2 SD of stop or wild-type variants, or the top frameshift score). Residues outside the varied loop are taken from Swiss-Prot. The paper reads the human single-substitution scores as noise; they and the rhesus combinations repeat poorly (rank correlation 0.3 to 0.4), indel scores repeat only for the top variants, rhesus substitutions well (0.9).

What follows are sequences tested on SIVsab (simian immunodeficiency virus of sabaeus monkeys), single-cycle GFP reporter, in CRFK cells (assay: enrichment among uninfected cells over input (fold); higher = stronger restriction). Conditions: library: human / rhesus combinations.
Description: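 Pools of CRFK cells expressing variants of the TRIM5α v1 loop were challenged with the single-cycle reporter, sorted by GFP and sequenced; mean of two replicates.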
With “MASGILVNVKEEVTCPICLELLTQPLSLDCGHSFCQACLTANHKKSMLDKGESSCPVCRISYQPENIRPNRHVANIVEKLREVKLSPEGQKVDHCARHGEKLLLFCQEDGKVICWLCERSQEHRGHHTFLTEEVAREYQVKLQAALEMLRQKQQEAEELEADIREEKASWKTQIQYDKTNVLADFEQLRDILDWEESNELQNLEKEEEDILKSLTNSETEMVQQTQSLRELISDLEHRLQGSVMELLQGVDGVIKRTENVTLKKPETFPKNQRRVFRAPDLKGMLEVFRELTDVRRYWVDVTVAPNNISCAVISEDKRQVSSPKPQIIYQAPGTRFTFQSLVNFNYCTGILGSQSITSGKHYWEVDVSKKTAWILGVCAGFQPDAMCNIEKNENYQPKYGYWVIGLEEGVKCSAFQDSSFHTPSVPFIVPLSVIICPDRVGVFLDYEACTVSFFNITNHGFLIYKFSHCSFSQPVFPYLNPRKCGVPMTLCSPSS [human TRIM5α, 330-340 = QAPGTRFTFQSLV]” the enrichment was 0.106 ± 0.075. “MASGILVNVKEEVTCPICLELLTQPLSLDCGHSFCQACLTANHKKSMLDKGESSCPVCRISYQPENIRPNRHVANIVEKLREVKLSPEGQKVDHCARHGEKLLLFCQEDGKVICWLCERSQEHRGHHTFLTEEVAREYQVKLQAALEMLRQKQQEAEELEADIREEKASWKTQIQYDKTNVLADFEQLRDILDWEESNELQNLEKEEEDILKSLTNSETEMVQQTQSLRELISDLEHRLQGSVMELLQGVDGVIKRTENVTLKKPETFPKNQRRVFRAPDLKGMLEVFRELTDVRRYWVDVTVAPNNISCAVISEDKRQVSSPKPQIIYQARGTLFPTLVNFNYCTGILGSQSITSGKHYWEVDVSKKTAWILGVCAGFQPDAMCNIEKNENYQPKYGYWVIGLEEGVKCSAFQDSSFHTPSVPFIVPLSVIICPDRVGVFLDYEACTVSFFNITNHGFLIYKFSHCSFSQPVFPYLNPRKCGVPMTLCSPSS [human TRIM5α, 330-340 = QARGTLFPTLV]” was tested, and the enrichment was 0.00124 ± 0.00071. “MASGILVNVKEEVTCPICLELLTQPLSLDCGHSFCQACLTANHKKSMLDKGESSCPVCRISYQPENIRPNRHVANIVEKLREVKLSPEGQKVDHCARHGEKLLLFCQEDGKVICWLCERSQEHRGHHTFLTEEVAREYQVKLQAALEMLRQKQQEAEELEADIREEKASWKTQIQYDKTNVLADFEQLRDILDWEESNELQNLEKEEEDILKSLTNSETEMVQQTQSLRELISDLEHRLQGSVMELLQGVDGVIKRTENVTLKKPETFPKNQRRVFRAPDLKGMLEVFRELTDVRRYWVDVTVAPNNISCAVISEDKRQVSSPKPQIIYGARGTRFTFQTLVNFNYCTGILGSQSITSGKHYWEVDVSKKTAWILGVCAGFQPDAMCNIEKNENYQPKYGYWVIGLEEGVKCSAFQDSSFHTPSVPFIVPLSVIICPDRVGVFLDYEACTVSFFNITNHGFLIYKFSHCSFSQPVFPYLNPRKCGVPMTLCSPSS [human TRIM5α, 330-340 = GARGTRFTFQTLV]” gave an enrichment of 0.274 ± 0.073. “MASGILVNVKEEVTCPICLELLTQPLSLDCGHSFCQACLTANHKKSMLDKGESSCPVCRISYQPENIRPNRHVANIVEKLREVKLSPEGQKVDHCARHGEKLLLFCQEDGKVICWLCERSQEHRGHHTFLTEEVAREYQVKLQAALEMLRQKQQEAEELEADIREEKASWKTQIQYDKTNVLADFEQLRDILDWEESNELQNLEKEEEDILKSLTNSETEMVQQTQSLRELISDLEHRLQGSVMELLQGVDGVIKRTENVTLKKPETFPKNQRRVFRAPDLKGMLEVFRELTDVRRYWVDVTVAPNNISCAVISEDKRQVSSPKPQIIYGARGTLFPSFVNFNYCTGILGSQSITSGKHYWEVDVSKKTAWILGVCAGFQPDAMCNIEKNENYQPKYGYWVIGLEEGVKCSAFQDSSFHTPSVPFIVPLSVIICPDRVGVFLDYEACTVSFFNITNHGFLIYKFSHCSFSQPVFPYLNPRKCGVPMTLCSPSS [human TRIM5α, 330-340 = GARGTLFPSFV]” gave an enrichment of 0.00239 ± 0.00085. In the case of “MASGILVNVKEEVTCPICLELLTQPLSLDCGHSFCQACLTANHKKSMLDKGESSCPVCRISYQPENIRPNRHVANIVEKLREVKLSPEGQKVDHCARHGEKLLLFCQEDGKVICWLCERSQEHRGHHTFLTEEVAREYQVKLQAALEMLRQKQQEAEELEADIREEKASWKTQIQYDKTNVLADFEQLRDILDWEESNELQNLEKEEEDILKSLTNSETEMVQQTQSLRELISDLEHRLQGSVMELLQGVDGVIKRTENVTLKKPETFPKNQRRVFRAPDLKGMLEVFRELTDVRRYWVDVTVAPNNISCAVISEDKRQVSSPKPQIIYQARGTRFTFPSFTNFNYCTGILGSQSITSGKHYWEVDVSKKTAWILGVCAGFQPDAMCNIEKNENYQPKYGYWVIGLEEGVKCSAFQDSSFHTPSVPFIVPLSVIICPDRVGVFLDYEACTVSFFNITNHGFLIYKFSHCSFSQPVFPYLNPRKCGVPMTLCSPSS [human TRIM5α, 330-340 = QARGTRFTFPSFT]”, the enrichment is reported as 0.117 ± 0.036. Work on “MASGILVNVKEEVTCPICLELLTQPLSLDCGHSFCQACLTANHKKSMLDKGESSCPVCRISYQPENIRPNRHVANIVEKLREVKLSPEGQKVDHCARHGEKLLLFCQEDGKVICWLCERSQEHRGHHTFLTEEVAREYQVKLQAALEMLRQKQQEAEELEADIREEKASWKTQIQYDKTNVLADFEQLRDILDWEESNELQNLEKEEEDILKSLTNSETEMVQQTQSLRELISDLEHRLQGSVMELLQGVDGVIKRTENVTLKKPETFPKNQRRVFRAPDLKGMLEVFRELTDVRRYWVDVTVAPNNISCAVISEDKRQVSSPKPQIIYGARGTLYTFPSLVNFNYCTGILGSQSITSGKHYWEVDVSKKTAWILGVCAGFQPDAMCNIEKNENYQPKYGYWVIGLEEGVKCSAFQDSSFHTPSVPFIVPLSVIICPDRVGVFLDYEACTVSFFNITNHGFLIYKFSHCSFSQPVFPYLNPRKCGVPMTLCSPSS [human TRIM5α, 330-340 = GARGTLYTFPSLV]” yielded an enrichment of 0.174 ± 0.1. With “MASGILVNVKEEVTCPICLELLTQPLSLDCGHSFCQACLTANHKKSMLDKGESSCPVCRISYQPENIRPNRHVANIVEKLREVKLSPEGQKVDHCARHGEKLLLFCQEDGKVICWLCERSQEHRGHHTFLTEEVAREYQVKLQAALEMLRQKQQEAEELEADIREEKASWKTQIQYDKTNVLADFEQLRDILDWEESNELQNLEKEEEDILKSLTNSETEMVQQTQSLRELISDLEHRLQGSVMELLQGVDGVIKRTENVTLKKPETFPKNQRRVFRAPDLKGMLEVFRELTDVRRYWVDVTVAPNNISCAVISEDKRQVSSPKPQIIYGAPGTRFPTLTNFNYCTGILGSQSITSGKHYWEVDVSKKTAWILGVCAGFQPDAMCNIEKNENYQPKYGYWVIGLEEGVKCSAFQDSSFHTPSVPFIVPLSVIICPDRVGVFLDYEACTVSFFNITNHGFLIYKFSHCSFSQPVFPYLNPRKCGVPMTLCSPSS [human TRIM5α, 330-340 = GAPGTRFPTLT]” the enrichment was 1.11 ± 1.6. Work on “MASGILVNVKEEVTCPICLELLTQPLSLDCGHSFCQACLTANHKKSMLDKGESSCPVCRISYQPENIRPNRHVANIVEKLREVKLSPEGQKVDHCARHGEKLLLFCQEDGKVICWLCERSQEHRGHHTFLTEEVAREYQVKLQAALEMLRQKQQEAEELEADIREEKASWKTQIQYDKTNVLADFEQLRDILDWEESNELQNLEKEEEDILKSLTNSETEMVQQTQSLRELISDLEHRLQGSVMELLQGVDGVIKRTENVTLKKPETFPKNQRRVFRAPDLKGMLEVFRELTDVRRYWVDVTVAPNNISCAVISEDKRQVSSPKPQIIYGARGTRYTFQSFTNFNYCTGILGSQSITSGKHYWEVDVSKKTAWILGVCAGFQPDAMCNIEKNENYQPKYGYWVIGLEEGVKCSAFQDSSFHTPSVPFIVPLSVIICPDRVGVFLDYEACTVSFFNITNHGFLIYKFSHCSFSQPVFPYLNPRKCGVPMTLCSPSS [human TRIM5α, 330-340 = GARGTRYTFQSFT]” yielded an enrichment of 0.0801 ± 0.045. “MASGILVNVKEEVTCPICLELLTQPLSLDCGHSFCQACLTANHKKSMLDKGESSCPVCRISYQPENIRPNRHVANIVEKLREVKLSPEGQKVDHCARHGEKLLLFCQEDGKVICWLCERSQEHRGHHTFLTEEVAREYQVKLQAALEMLRQKQQEAEELEADIREEKASWKTQIQYDKTNVLADFEQLRDILDWEESNELQNLEKEEEDILKSLTNSETEMVQQTQSLRELISDLEHRLQGSVMELLQGVDGVIKRTENVTLKKPETFPKNQRRVFRAPDLKGMLEVFRELTDVRRYWVDVTVAPNNISCAVISEDKRQVSSPKPQIIYGARGTLFPTLVNFNYCTGILGSQSITSGKHYWEVDVSKKTAWILGVCAGFQPDAMCNIEKNENYQPKYGYWVIGLEEGVKCSAFQDSSFHTPSVPFIVPLSVIICPDRVGVFLDYEACTVSFFNITNHGFLIYKFSHCSFSQPVFPYLNPRKCGVPMTLCSPSS [human TRIM5α, 330-340 = GARGTLFPTLV]” was tested, and the enrichment was 0.00426 ± 0.0015.

Same assay, conditions: library: insertions and deletions
“MASGILVNVKEEVTCPICLELLTQPLSLDCGHSFCQACLTANHKKSMLDKGESSCPVCRISYQPENIRPNRHVANIVEKLREVKLSPEGQKVDHCARHGEKLLLFCQEDGKVICWLCERSQEHRGHHTFLTEEVAREYQVKLQAALEMLRQKQQEAEELEADIREEKASWKTQIQYDKTNVLADFEQLRDILDWEESNELQNLEKEEEDILKSLTNSETEMVQQTQSLRELISDLEHRLQGSVMELLQGVDGVIKRTENVTLKKPETFPKNQRRVFRAPDLKGMLEVFRELTDVRRYWVDVTVAPNNISCAVISEDKRQVSSPKPQIIYGARGTRYQTFGTRYQTFVNFNYCTGILGSQSITSGKHYWEVDVSKKTAWILGVCAGFQPDAMCNIEKNENYQPKYGYWVIGLEEGVKCSAFQDSSFHTPSVPFIVPLSVIICPDRVGVFLDYEACTVSFFNITNHGFLIYKFSHCSFSQPVFPYLNPRKCGVPMTLCSPSS [human TRIM5α, 7-codon duplication at 333]” showed an enrichment of 0.362 ± 0.35. “MASGILVNVKEEVTCPICLELLTQPLSLDCGHSFCQACLTANHKKSMLDKGESSCPVCRISYQPENIRPNRHVANIVEKLREVKLSPEGQKVDHCARHGEKLLLFCQEDGKVICWLCERSQEHRGHHTFLTEEVAREYQVKLQAALEMLRQKQQEAEELEADIREEKASWKTQIQYDKTNVLADFEQLRDILDWEESNELQNLEKEEEDILKSLTNSETEMVQQTQSLRELISDLEHRLQGSVMELLQGVDGVIKRTENVTLKKPETFPKNQRRVFRAPDLKGMLEVFRELTDVRRYWVDVTVAPNNISCAVISEDKRQVSSPKPQIIYGARGTRYQTFVNFNLGSQSITSGKHYWEVDVSKKTAWILGVCAGFQPDAMCNIEKNENYQPKYGYWVIGLEEGVKCSAFQDSSFHTPSVPFIVPLSVIICPDRVGVFLDYEACTVSFFNITNHGFLIYKFSHCSFSQPVFPYLNPRKCGVPMTLCSPSS [human TRIM5α, 5-codon deletion at 344]” showed an enrichment of 1.64 ± 0.7. “MASGILVNVKEEVTCPICLELLTQPLSLDCGHSFCQACLTANHKKSMLDKGESSCPVCRISYQPENIRPNRHVANIVEKLREVKLSPEGQKVDHCARHGEKLLLFCQEDGKVICWLCERSQEHRGHHTFLTEEVAREYQVKLQAALEMLRQKQQEAEELEADIREEKASWKTQIQYDKTNVLADFEQLRDILDWEESNELQNLEKEEEDILKSLTNSETEMVQQTQSLRELISDLEHRLQGSVMELLQGVDGVIKRTENVTLKKPETFPKNQRRVFRAPDLKGMLEVFRELTDVRRYWVDVTVAPNNISCAVISEDKRQVSSPKPQIIYGAPQIIYGARGTRYQTFVNFNYCTGILGSQSITSGKHYWEVDVSKKTAWILGVCAGFQPDAMCNIEKNENYQPKYGYWVIGLEEGVKCSAFQDSSFHTPSVPFIVPLSVIICPDRVGVFLDYEACTVSFFNITNHGFLIYKFSHCSFSQPVFPYLNPRKCGVPMTLCSPSS [human TRIM5α, 7-codon duplication at 325]” showed an enrichment of 0.0915 ± 0.12.
